The structures appear in SMILES notation. “And” between values parts separate entries of the source, which are not always exact repeats. Equal values may be shown once.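 How tested: cells in 96-well plates exposed to compound for 48 hours at five concentrations. GI50 marks 50% less growth. TGI: total growth inhibition.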

The test system of this assay is NCI-H322M lung. As to the kind of experiment: NCI anticancer screen, dose series, 48 h.
The molecule `CC(CNC(N)=O)NC(N)=O` (stereo unspecified) displayed a TGI of more than 100 µM.

`CC(C)N(Cc1ccc(CN(C(=O)CCl)C(C)C)cc1)C(=O)CCl`: the GI50 is 2.36 µM and the TGI worked out at 7.26 µM. With `CCOC(=O)C(Cc1ccc(N(CCCl)CCCl)cc1)NC(=O)C(Cc1ccccc1)NC=O` (stereo unspecified), the TGI is 0.554 µM. Take `COc1cc(C2C3=C(COC3=O)N(CCO)c3cc4c(cc32)OCCO4)cc(OC)c1OC` (stereo unspecified): the GI50 is 1.8 µM and the TGI is more than 50 µM. The corresponding values for `Cn1cc(C2=C(c3c[nH]c4ccccc34)C(=O)NC2=O)c2ccccc21` are 2.05 µM and more than 9.85 µM.

Take `CCOc1cc2c(cc1O)C(O)C[C@@H]1[C@@H]2CC[C@]2(C)[C@@H](O)CC[C@@H]12` (stereo partly specified): the TGI is more than 100 µM. Take `Cc1c(C#N)cccc1[C@@H](C)Nc1nnc(C)c2cnc(N3CCOCC3)cc12`: the GI50 was 9.61 µM and the TGI is more than 100 µM. In turn, `CC(C)c1cc(C(C)C)c(S(=O)(=O)N=[N+]=[N-])c(C(C)C)c1` returned a TGI of more than 100 µM. Still for that read-out and setting: then `CCOC(=O)c1cc(-c2ccc(-c3cc(C(=O)OCC)c(C#N)c(N)c3C#N)cc2)c(C#N)c(N)c1C#N`, with more than 100 µM. Same read-out and setting: then `CCN(CC)C(=O)CCN1CC1`, with more than 10 µM. The same measure, in the same setting: then `COC(NC(=O)Nc1ccccc1C)(C(F)(F)F)C(F)(F)F`, with more than 100 µM; and `Cc1c([C@H](C)[C@@H]2NC[C@@H](C)C[C@H]2O)ccc2c1C[C@H]1[C@H]2CC=C2C[C@@H](O)CC[C@@]21C`, with 37.5 µM. In the case of `COc1cc(OC)cc(C2C3=C(COC3=O)Nc3cc(OC)ccc32)c1` (stereo unspecified), the GI50 is less than 0.01 µM and the TGI is more than 100 µM. For the molecule `COc1ccc(-c2cncn2-c2cc(OC)c(OC)c(OC)c2)cc1`, the GI50 is 0.135 µM. `O=C(O)CCNS(=O)(=O)c1ccc2ccccc2c1` registered a TGI of more than 100 µM.

`COc1ccc(-c2cc3c(C)nc(N)nc3n(C3CCC(OCCO)CC3)c2=O)cn1` (stereo unspecified): the GI50 was 0.108 µM and 0.0604 µM; the TGI is 0.885 µM and 0.525 µM. Take `O=C1CSC(c2ccccc2Cl)N1c1nnc(Cn2cnnc2)o1` (stereo unspecified): the GI50 is 25.3 µM and the TGI is more than 100 µM. Regarding `c1ccc(OCCC[P+](c2ccccc2)(c2ccccc2)c2ccccc2)cc1`, the GI50 is 4.29 µM and the TGI was determined as 25.3 µM. The molecule `CCCCCCCCC#CCCCCCCCCCC[C@@H]1C(=O)O[C@H](C)[C@@H]1O` (tested in a mixture with another compound) came in with a TGI of more than 100 µM. As to `CCCCCCCCCCCCC(O)c1ccco1` (stereo unspecified), the GI50 is 22.8 µM and the TGI worked out at 40.8 µM. Molecule `S=C1SC(=Nc2ccccc2)C(=Nc2ccccc2)N1c1ccc2ccccc2c1` yielded a TGI of more than 100 µM. On the same count and under the same terms, next, `CN1Cc2ccccc2/C=C\c2ccccc21`: more than 100 µM. For `C#C[C@@]1(O)[C@@H](CO)O[C@@H](n2cc(I)c3c(N)ncnc32)[C@@H]1O`, the GI50 is 0.526 µM and the TGI amounted to 17.9 µM.

In the case of `C1CN(c2nnc(N3CCC3)nn2)C1`, the TGI is more than 100 µM. The same measure, in the same setting: then `Cc1c(C(=O)O)n(C)c(=O)n(C)c1=O`, with more than 100 µM. Same read-out and setting: then `O=c1c2ccccc2nc2ccc3c(Cl)[nH][nH]c3c12`, with more than 100 µM. Turning to `CCN(CC)CCCC(C)Nc1cc(-c2cccc(OC(F)(F)F)c2)nc2ccc(N3CCCC3)cc12` (stereo unspecified), the GI50 was 0.452 µM and the TGI is more than 100 µM.

As for `COc1cc(Oc2nc3cc(F)c(F)cc3nc2-c2ccccc2)cc(OC)c1OC`, the TGI was more than 100 µM. Same read-out and setting: then `CCOC1=C(c2ccccc2)N2CCCCC2O1` (stereo unspecified), with more than 100 µM. Regarding `CCOC(=O)CCC(C(=O)OCC)n1nnc2cc(Nc3c(C)[n+]([O-])c4cc(F)c(OCC)cc4[n+]3[O-])ccc21` (stereo unspecified), the TGI was more than 100 µM. Same read-out and setting: next, `CS(=O)(=O)OCCCNCCCOS(C)(=O)=O`: 7060 µM. Same read-out and setting: next, `CN(C)CC1CC/C(=C\c2ccc3c(c2)OCO3)C1=O` (stereo unspecified): 50 µM; `Cc1c2ccncc2c(C)c2c1[nH]c1ccc(OCCN(C)C)cc12`: 0.384 µM. On the same count and under the same terms, next, `CC(C)OC(=S)Nc1ccc(Cl)c(/C=N/OC(C)(C)C)c1`: 45.5 µM; `CC(C)(C)C1=C(Br)C(O)(C(C)(C)C)OP1(=O)c1ccccc1` (stereo unspecified): more than 100 µM. With `COc1cccc(C2c3cc4c(cc3OC(Nc3ccccc3)C2C)OCO4)c1O` (stereo unspecified), the TGI was determined as 49.4 µM.

Take `Clc1ccc(C2=CCN3CC=C(c4ccc(Cl)cc4)C23)cc1`: the TGI was 30.7 µM. For the molecule `C#Cc1cccc(Nc2nc(Cl)nc3cc(NC(=O)CCl)ccc23)c1`, the GI50 was 3.44 µM and the TGI amounted to 6.69 µM. In the case of `O=C(NNc1ccc(Cl)cc1)C1CCC(CNS(=O)(=O)c2ccccc2Cl)CC1` (stereo unspecified), the GI50 was 11.1 µM and the TGI was determined as 51.6 µM.

In turn, `O=C(O)/C(Cc1cn[nH]n1)=N\O` showed a TGI of more than 100 µM. For the molecule `Clc1ccc(-c2c3ccc(=[N+]4CCCCC4)cc-3oc3cc(N4CCCCC4)ccc23)cc1`, the GI50 is 0.0651 µM and the TGI amounted to 0.302 µM. With `CC1CCC2(OC1)OC1C(O)C3C4CCC5CC(OC6OC(CO)C(OC7OC(CO)C(O)C(OC8OCC(O)C(O)C8O)C7OC7OC(CO)C(O)C(OC8OC(CO)C(O)C(O)C8O)C7O)C(O)C6O)C(O)CC5(C)C4CCC3(C)C1C2C` (stereo unspecified), the TGI is 10.4 µM.

In the case of `Cc1ccc(N=C[N-]c2ccc(C)cc2)cc1.Cc1ccc(N=C[N-]c2ccc(C)cc2)cc1.O=C([O-])C(F)(F)F.O=C([O-])C(F)(F)F.[OH3+].[OH3+].[Rh+2].[Rh+2]`, the GI50 is 48.7 µM and the TGI is more than 100 µM.

Regarding `CCOC(=O)C1=C(O)c2ccc(C)cc2C(=O)C1=O`, the TGI is more than 100 µM. On the same count and under the same terms, then `Cc1ccc([N+](=O)[O-])c2c(NCCNC(=O)c3cc(C(=O)NCCNc4ccnc5c(C)ccc([N+](=O)[O-])c45)n(C)n3)ccnc12`, with more than 100 µM; and `O=C(NC(=O)c1c(Cl)nc2sccn12)Nc1ccc(Cl)cc1`, with more than 100 µM. Consider `CCNc1cc2c3c(c1)CCN3CCC2`, for which the TGI was more than 10 µM. Consider `O=C(NCCCc1cn[nH]c1)c1ccc(-c2ccncc2)c(C#Cc2ccc(F)cc2)c1`, for which the GI50 was 23.5 µM and the TGI was more than 100 µM. As for `N#Cc1ccccc1NC(=O)C(=O)C1NC(=S)NC1=O` (stereo unspecified), the TGI was more than 100 µM. Still for that read-out and setting: then `Cc1ccc(S(=O)(=O)NC(=O)C2=C3SCCN3C(=O)N(S(=O)(=O)c3ccc(C)cc3)C2c2ccccc2)cc1` (stereo unspecified), with more than 100 µM; and `O=[N+]([O-])/C(C(Cl)=C(Cl)Cl)=C(/Nc1cccc2cccnc12)n1nnc2ccccc21`, with 48.4 µM; and `COc1nc(C#CC2CCCCC2)nc(OC)n1`, with 24.6 µM. `NC(=O)CN1C=CCC(C(N)=O)=C1` showed a TGI of more than 100 µM.

`O=C1NC(Cc2ccc(O)cc2)C(=O)NC1Cc1ccc(O)cc1` (stereo unspecified): the TGI is more than 100 µM. Consider `Oc1ccc(-c2nc3ccccc3s2)cc1`, for which the TGI is more than 100 µM. `CSc1nc2nc3c(nc2c(=O)n1C)C(=O)c1ccccc1C3=O`: the GI50 was 0.132 µM and the TGI is 0.706 µM.

Molecule `CCCCCC(=O)Nc1nc2nc[nH]c2c(=O)[nH]1` displayed a TGI of more than 100 µM. The same measure, in the same setting: next, `C#CC1=CC(=O)C(OC)=CC1=O`: more than 100 µM; `COCCOc1cc(C)cc(/C=C(C)/C=C/C2=C(C)CCCC2(C)C)n1`: more than 100 µM.

`S=C1Cc2c(-c3ccc(Br)cc3)cc(-c3ccccc3)nc2-c2ccccc2N1`: the TGI was found to be 4.06 µM.

`COC(=O)Nc1nc2ccccc2[nH]1` showed a TGI of more than 100 µM.

Take `CCC[CH2][Sn]([CH2]CCC)([S]C#N)[S]C#N`: the GI50 was 1.93 µM and the TGI worked out at 3.77 µM. `O=C1C2C=CC(n3[nH]c(=O)n(Cc4ccccc4)c3=O)CC2C(=O)N1c1ccc(Br)cc1` (stereo unspecified) had a TGI of more than 100 µM. Regarding `COc1ccc(C(=O)c2cc(C)c(OC)c(C)c2)c(OC)c1NC(C)=O`, the GI50 was 0.172 µM and the TGI was more than 100 µM. Regarding `[N-]=[N+]=NCC(O)Cn1cnc2c(NC(=O)c3ccccc3)ncnc21` (stereo unspecified), the TGI was more than 100 µM.

In turn, `CC(C)c1cccc(C(C)C)c1N1C(=O)C(=O)C(c2nc3ccccc3o2)C(=O)C1=O` registered a TGI of more than 100 µM.

`COc1ccc(-c2ccc(/C=N/n3c(COc4ccccc4Cl)nn(CN4CCOCC4)c3=S)o2)c([N+](=O)[O-])c1`: the GI50 is 21 µM and the TGI was found to be 61.7 µM. Molecule `O=C(Nc1nn[nH]n1)c1nc(-c2ccccc2)cc(=O)[nH]1` showed a TGI of more than 100 µM. Take `CC1(C)Oc2ccc3c(=O)cc(-c4ccccc4)oc3c2C1C(=O)O` (stereo unspecified): the TGI is more than 100 µM.

Consider `CCCc1cc(=O)n2c(C(=O)Nc3ccc(F)cc3)c(C(=O)Nc3ccc(F)cc3)sc2n1`, for which the GI50 was 152 µM and the TGI was more than 160 µM. As to `O=c1[nH]nc(Cc2ccc(Cl)cc2)n1/N=C/c1ccc([N+](=O)[O-])o1`, the TGI was 15.1 µM. For `CN=C1C=CC(=C(c2ccc(N(C)C)cc2)c2ccc(N(C)C)cc2)C=C1`, the GI50 was 0.374 µM and the TGI turned out to be 2.66 µM. For the molecule `CC1=C(C(=O)Nc2ccccc2)C(c2ccccc2Cl)C(C(=O)Nc2ccccc2)=C(C)N1`, the TGI is more than 100 µM. The same measure, in the same setting: next, `CCN(CC)CC1CCCCN1CC(=O)N1CC(C)C(=O)Nc2ccccc21` (stereo unspecified): more than 100 µM. In turn, `O=C(c1ccc(Cl)cc1)N1CCN=C1c1cc2ccccc2c2ccccc12` displayed a TGI of 25.6 µM. As for `O=[N+]([O-])c1ccc(Cl)c(CNc2ncnc3c2ncn3C2CCCCO2)c1` (stereo unspecified), the TGI was more than 100 µM.

In the case of `Cc1cc(C)c(C#N)c(Sc2nc(C)c([N+](=O)[O-])c(C)c2C#N)n1`, the GI50 is 10.9 µM and the TGI came to 39.2 µM. For the molecule `CS(=O)(=O)c1ccc(Nc2nc(N[C@H]3CCCC[C@H]3N)nc3cc[nH]c(=O)c23)cc1`, the GI50 is 2.72 µM and the TGI came to 9.91 µM. Take `CCOC(=O)c1cc(Br)c(-c2onc(C)c2Br)[nH]1`: the TGI is more than 100 µM. Take `COc1cc(/C=C/c2ccc(O)c(OC)c2)cc(OC)c1`: the TGI was more than 100 µM.

On to `COC(=O)Cn1cnc2c(Cl)nc(Nc3ccccc3)nc21`, for which the TGI amounted to 71.9 µM. Still for that read-out and setting: then `CC(C)=CCC[C@@H](C)C1=C(O)C(Nc2ccccc2I)=C(C)C(=O)C1=O`, with more than 75 µM; and `CN(C)CC1CCC(CN(C)C)C(=O)C1=O` (stereo unspecified), with 43.1 µM; and `CC(=O)OCC1OC(n2c(C)c(C)c(C)c(C#N)c2=S)C(OC(C)=O)C(OC(C)=O)C1OC(C)=O` (stereo unspecified), with more than 100 µM. Same read-out and setting: then `O=C(O)c1ccccc1C1c2ccccc2Oc2ccccc21`, with more than 100 µM. For `COc1ccccc1C1C(C#N)=C(N)Oc2n[nH]c(C)c21` (stereo unspecified), the GI50 was more than 100 µM and the TGI was more than 100 µM.

The values are drawn from PubChem BioAssay (NCI).
